# Laboratory results: paper PMC10668032
# The other results are listed elsewhere or left out. At the low end of the ranking the order means little.
# Molecular target: SIX1-Q177R homeodomain (UniProt Q15475)
# Assay: universal protein binding microarray
# Conditions: Universal all-10-mer PBM (8x60K, AMADID 030236), 300 nM GST-tagged protein, Alexa Fluor 488 anti-GST; buffer, salt, pH and temperature not stated; high values mean tight binding; most listed sequences are background and not binding sites; double strand, one strand shown
row,Sequence,binding signal [E-score]
1,ACCTGCGG,0.0488
2,CAGCCCTC,-0.0853
3,CTAGGAAA,-0.208
4,CACGGAGC,0.163
5,TAGTGCAA,-0.111
6,TAGATGGA,0.146
7,AAGTTAGG,-0.0455
8,GTGGACAC,0.419
9,GAGGCTAC,0.0789
10,CCCATTTC,-0.0802
11,TATATTGA,0.0504
12,GAAACCGA,-0.0924
13,AGCCATGA,-0.0361
14,ACTCTAAC,-0.0554
15,TACTTATA,-0.0918
16,ACTGCACG,0.0778
17,AGGCCCAC,-0.161
18,CGGGGAGC,-0.146
19,CAAGAGGG,-0.0151
20,TAACATTA,-0.0975
21,CGGCCTGA,-0.0871
22,AGTAACAA,-0.189
23,AGCCGTTA,-0.246
24,GACAGTAA,-0.0716
25,AGTCTGAG,-0.0672

row,Sequence,binding signal [E-score]
1,CTGCCCCA,-0.075
2,CGTGCTTA,0.0941
3,CTCTAGCC,-0.0924
4,GCTTGGAC,-0.0822
5,CATAACCG,-0.0406
6,ATCTCAGC,-0.103
7,ATTACTAC,0.0498
8,AACTTCGA,-0.337
9,AAGGACAA,-0.091
10,ATCCCTGC,0.16
11,ACGATGTC,-0.13
12,AGTGTAAG,0.415
13,TGGCAACA,0.0701
14,ACATCCGA,-0.0659
15,AGGATGAC,-0.106
16,ACACGGGT,0.453
17,ATCCAGCG,-0.0748
18,CCGCTACC,-0.0464
19,ATGTGCAA,-0.175
20,CGATCTGC,-0.0353
21,CTTTGGCC,-0.193
22,CTTTCATA,-0.12
23,ACAAATCA,-0.11
24,CGGGAAAC,-0.0566
25,CAGAGATC,-0.206

row,Sequence,binding signal [E-score]
1,GGTTCATA,0.103
2,GCAAAAGC,-0.211
3,CTATGCTA,-0.0988
4,CGACGCTA,0.0107
5,CAGTTACG,-0.033
6,AGGAGAAG,-0.14
7,TGCGCGAA,0.0437
8,GAAAATCC,-0.129
9,ACACCGCG,0.481
10,ATGCATGA,-0.0633
11,CATATTGA,-0.127
12,AGCCCGTC,-0.0863
13,AGATACGA,-0.114
14,ACGTTGCC,-0.276
15,CGGAGTCC,0.132
16,CCGGAAAC,0.0123
17,CTCCACGC,-0.00874
18,ATTGTGTC,0.219
19,CCTGCCGA,-0.125
20,ACTATGCT,-0.0562
21,ACTATTTA,0.0639
22,CAGACCGC,-0.0989
23,CGAGAAGC,-0.0205
24,TACAGATA,-0.0687
25,CATGACGC,0.0528

row,Sequence,binding signal [E-score]
1,CAGCTGCA,-0.133
2,AGTCGCTG,-0.122
3,TATCTTGA,-0.104
4,CCCCAGTC,-0.0542
5,CCCGTGTC,0.458
6,ACCACACC,0.407
7,AAGGCGAA,-0.0583
8,ACATCAAC,-0.0413
9,AGGCAGAG,-0.294
10,GCCGGACC,-0.207
11,GCCATGCC,-0.181
12,ATCAAATC,-0.0527
13,GAACGTGA,-0.144
14,ACCGCCCC,0.157
15,AGACAGTG,0.072
16,GTCTTTTA,0.00775
17,AATGAACC,0.019
18,CAAAGTCA,-0.348
19,ACTGTGGG,0.103
20,TATCACCA,0.0633
21,CGGCCTTC,-0.0834
22,ATACAGGA,-0.298
23,AACAGGAT,-0.0143
24,AATCGGGC,0.0203
25,GTTTTTGA,0.0762

row,Sequence,binding signal [E-score]
1,CCGTGACC,0.0574
2,ACAAGGCT,-0.115
3,GATCTGCC,0.0106
4,ATTATGAG,-0.162
5,AGGAAACG,-0.227
6,TCTAAAAA,-0.141
7,CACCCGCG,0.301
8,AAACGTGG,-0.251
9,ACTTCGAT,-0.169
10,ATCCCATG,0.0869
11,AAATCTAG,-0.103
12,TGCAAACA,0.0129
13,CGGAGGCA,0.0252
14,TTGTGAAA,0.106
15,AGTGGGTG,0.277
16,AAGTCCGA,-0.0441
17,ACATGCCT,-0.199
18,CCCATCGC,-0.0856
19,AGGAAGGC,-0.22
20,TTCGACAA,-0.00543
21,ACTCCATA,0.201
22,CCGATCTC,0.0539
23,TACAAAAA,0.102
24,TAGGCAGA,-0.0977
25,AATAAGCG,-0.257

row,Sequence,binding signal [E-score]
1,ACCCCACC,0.327
2,ATTACTTC,-0.156
3,AATCCCGC,-0.102
4,CCTCGGCG,0.0113
5,ACACGACC,0.417
6,ATGACGCC,0.172
7,AGGATACT,0.167
8,GCAGAACA,0.146
9,CCTCTTGC,-0.147
10,CACTAAAC,0.195
11,ACCACTTC,0.0817
12,AGCTGGAA,-0.175
13,TTCTCAAA,-0.251
14,AGGCCAAA,-0.196
15,ATATTCTC,-0.0362
16,CAGGCTTC,-0.271
17,ATAACAGG,-0.0176
18,CCGATCTA,-0.0594
19,CCGCGGCA,-0.079
20,CGGTGTTC,0.476
21,CTATTAGA,-0.094
22,CTATTGAC,0.0373
23,CCGCAGCG,-0.0724
24,ATAAGTAT,-0.111
25,ACCCGTAG,0.149

row,Sequence,binding signal [E-score]
1,ACGTCTTG,-0.037
2,CAACGTTA,-0.187
3,CTCATTTA,-0.206
4,CGCGAAAA,0.0628
5,ATGAGGGA,0.00326
6,AATATGCT,-0.221
7,CCGAGTAG,0.123
8,CGGATTAC,0.103
9,CGACCTTC,-0.0704
10,AGGGCATG,0.0655
11,CCGCCAGG,-0.0213
12,CCGGTGTA,0.486
13,CAGCTCCG,-0.0751
14,AGACCTCC,-0.152
15,CCAGAGGG,-0.0214
16,ACTACGCG,0.0606
17,ACTTAACT,-0.0249
18,CCCTCCCG,0.139
19,TGGAATAA,-0.091
20,CAAAGCGG,-0.126
21,CTTAGTGA,-0.115
22,ATAGGAAA,-0.134
23,AGACCTCT,-0.159
24,AGCCGAAA,-0.0444
25,CGGTTGTA,-0.0492

row,Sequence,binding signal [E-score]
1,AACTACCG,-0.112
2,CTCTTATC,0.0166
3,ACCAAACC,0.134
4,CTTCAGCA,-0.239
5,CACTTCGA,0.127
6,CTAACGGA,-0.0618
7,CAGGACAA,-0.127
8,AAGCCATA,-0.223
9,ACGGCATA,-0.192
10,AGTGAGTC,-0.0424
11,CTGTATGC,-0.209
12,GTTAATAA,-0.027
13,ACTTACGC,0.164
14,AAGATCAT,-0.0882
15,CCGAATAG,-0.123
16,GCATTTGA,-0.112
17,CAAAACTA,0.0571
18,GCGTCTCA,0.0592
19,ACTTTGTA,-0.0907
20,GCGTAACA,0.199
21,GAATCAGA,-0.223
22,AACCAGTA,-0.0806
23,AATTGCCC,-0.21
24,GTCATAAA,-0.118
25,CTCTCTCA,0.00782

row,Sequence,binding signal [E-score]
1,ACACTGTA,0.351
2,CCAATAAC,-0.0801
3,CCGATCCA,0.188
4,AAAATTGA,-0.175
5,CTTCTCAC,-0.102
6,CTGCTATC,-0.0997
7,CACGTTGC,0.0561
8,ATGAATTC,-0.0691
9,ACAATGTC,-0.12
10,GCAACTAA,-0.0291
11,AGCTGGCG,0.0356
12,CTCTGGAA,-0.0805
13,CGTATCCC,0.142
14,CATGTTAA,-0.231
15,ATGCTAGA,-0.197
16,CAGAGTAA,0.0237
17,GAGTAGGA,-0.0751
18,AGAATAAC,-0.0603
19,GGACTACC,0.0243
20,CTTGGCCC,-0.271
21,CGGAATAA,-0.0943
22,AGGTTCAC,-0.176
23,TCTACTCA,-0.028
24,AAAAAGGT,-0.0279
25,ATCGCATG,-0.142

row,Sequence,binding signal [E-score]
1,CTCCCTCA,-0.0496
2,GTATAGAA,-0.0205
3,CCGACCAC,0.192
4,GCCCCTCC,0.11
5,AAAGCCGG,-0.145
6,CCCGCTAA,-0.0616
7,CAGTGAAG,-0.104
8,GTTAGAAC,0.0421
9,GGCTCCAA,-0.173
10,AGTGTGCC,0.159
11,ACGTTGCG,-0.142
12,AATGCAAC,-0.0298
13,GTACCAAC,0.0882
14,AGCGTACG,0.105
15,CCGTAAGA,-0.109
16,AGGCACGA,-0.0282
17,ATCGTAAT,-0.128
18,AATTATCC,-0.0487
19,TCTGTGCA,-0.135
20,GTATCGGA,0.254
21,AATACTAT,-0.26
22,TCCAAACA,0.0943
23,CGTTCCAA,-0.0101
24,AAATTGCG,-0.0199
25,AAGTATTG,0.0199

row,Sequence,binding signal [E-score]
1,AGCGACAT,-0.095
2,CGTCATAC,0.128
3,CTGGGGTC,0.229
4,TGGATAAA,-0.096
5,CTATATCC,0.0435
6,GAAAGGTA,-0.136
7,ACGCGACT,0.0834
8,CTTTATGC,-0.0588
9,ATCGGACG,-0.172
10,CACTTTAG,0.0962
11,TACCGGCA,-0.091
12,GAACCTCC,-0.0187
13,GATAAAAA,-0.131
14,CGCTGGGA,-0.0669
15,GCTGGATA,0.0148
16,AGACGTAT,-0.237
17,CTCTCCTA,-0.0625
18,ATAATCTG,-0.24
19,TGACATAA,0.0542
20,CGGGAGTA,0.26
21,AATGTGAC,-0.226
22,CAAACGGA,-0.342
23,GGGCGTAC,0.131
24,CGTTTCTA,0.00713
25,CCACGCTA,-0.155

row,Sequence,binding signal [E-score]
1,ACGAAGAC,0.0283
2,ATGCTTAC,-0.18
3,CTCATTAA,0.047
4,GAGGTCCA,-0.163
5,ATCTGCAG,-0.0672
6,CGCGCTAC,0.15
7,AGTGGACA,0.149
8,TAAGAAGA,-0.218
9,AGTGGATG,-0.0627
10,AGGGCATC,-0.191
11,ATCTATTG,-0.18
12,GAGTACTA,0.0555
13,AACCTCTG,-0.055
14,AATACAAA,0.0385
15,GCCGGCCA,-0.121
16,ATCCGGTC,0.08
17,CCTTATCC,-0.00249
18,AAGTTTTC,-0.121
19,ATAAGGAC,-0.12
20,AGCTGAAA,-0.251
21,ACTTAAAA,-0.345
22,TCTAGGCA,-0.162
23,ACTAACGG,0.0282
24,ACCTGAGG,0.0472
25,AAGGCAGA,-0.164

row,Sequence,binding signal [E-score]
1,CAGCGCCA,-0.104
2,CCGCATAC,0.0975
3,ATGATGAC,0.0166
4,ACCCCATA,0.249
5,AGCCCTGA,-0.106
6,CGCGTCCC,-0.0913
7,GATAGCCA,-0.279
8,CGCTATTA,0.066
9,CGAGTTAG,-0.056
10,TCAAATGA,-0.181
11,AGACCTTG,-0.154
12,AGTCAACA,0.0535
13,CATCCTTA,0.0708
14,TCCACGAA,-0.229
15,TAAAGTTA,-0.108
16,CCAATTCA,0.0423
17,CGCGCCAA,-0.0295
18,TAAAATTA,-0.224
19,GCATTAGC,-0.233
20,CACGGAGG,0.222
21,AATGTAAG,-0.117
22,ATCATAAC,0.146
23,CGCTAAAG,-0.319
24,AGTAGTGA,0.0251
25,ATCGTGAA,-0.225

row,Sequence,binding signal [E-score]
1,GAGTTTCA,-0.0337
2,CGCATCCA,-0.0795
3,GGTCTCAA,-0.0287
4,CAATAACA,0.133
5,AAACGCGT,-0.112
6,GGCCCTCA,-0.237
7,AAGGTGGC,-0.135
8,ACTATTAA,0.0721
9,CTGGATCC,0.121
10,CTTTAATA,-0.0622
11,GGCGAACC,-0.12
12,GAAGGATC,0.117
13,GCTCTCAA,-0.154
14,GGAGTCGA,0.227
15,CACGGACC,0.117
16,ACATGGAG,0.0903
17,AGGTGAGG,-0.16
18,GGCATTAA,0.019
19,GCAAGTGC,-0.141
